Measurements as given in paper PMC4336329 (PLoS ONE, 2015).
Out of some 310,000 compounds screened, about 14,000 (4.5%) showed an effect of 50% or more. Effects have a minus sign here. The list shows a part of the results.

molecular target: human ether-à-go-go-related gene (hERG) potassium channel (human, UniProt Q12809); experiment: primary screen, population patch clamp on CHO cells stably expressing hERG
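Note: peak tail current of the secondary pulse compared with the same well before compound.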

Chain of human ether-à-go-go-related gene (hERG) potassium channel (Q12809 whole entry, looked up): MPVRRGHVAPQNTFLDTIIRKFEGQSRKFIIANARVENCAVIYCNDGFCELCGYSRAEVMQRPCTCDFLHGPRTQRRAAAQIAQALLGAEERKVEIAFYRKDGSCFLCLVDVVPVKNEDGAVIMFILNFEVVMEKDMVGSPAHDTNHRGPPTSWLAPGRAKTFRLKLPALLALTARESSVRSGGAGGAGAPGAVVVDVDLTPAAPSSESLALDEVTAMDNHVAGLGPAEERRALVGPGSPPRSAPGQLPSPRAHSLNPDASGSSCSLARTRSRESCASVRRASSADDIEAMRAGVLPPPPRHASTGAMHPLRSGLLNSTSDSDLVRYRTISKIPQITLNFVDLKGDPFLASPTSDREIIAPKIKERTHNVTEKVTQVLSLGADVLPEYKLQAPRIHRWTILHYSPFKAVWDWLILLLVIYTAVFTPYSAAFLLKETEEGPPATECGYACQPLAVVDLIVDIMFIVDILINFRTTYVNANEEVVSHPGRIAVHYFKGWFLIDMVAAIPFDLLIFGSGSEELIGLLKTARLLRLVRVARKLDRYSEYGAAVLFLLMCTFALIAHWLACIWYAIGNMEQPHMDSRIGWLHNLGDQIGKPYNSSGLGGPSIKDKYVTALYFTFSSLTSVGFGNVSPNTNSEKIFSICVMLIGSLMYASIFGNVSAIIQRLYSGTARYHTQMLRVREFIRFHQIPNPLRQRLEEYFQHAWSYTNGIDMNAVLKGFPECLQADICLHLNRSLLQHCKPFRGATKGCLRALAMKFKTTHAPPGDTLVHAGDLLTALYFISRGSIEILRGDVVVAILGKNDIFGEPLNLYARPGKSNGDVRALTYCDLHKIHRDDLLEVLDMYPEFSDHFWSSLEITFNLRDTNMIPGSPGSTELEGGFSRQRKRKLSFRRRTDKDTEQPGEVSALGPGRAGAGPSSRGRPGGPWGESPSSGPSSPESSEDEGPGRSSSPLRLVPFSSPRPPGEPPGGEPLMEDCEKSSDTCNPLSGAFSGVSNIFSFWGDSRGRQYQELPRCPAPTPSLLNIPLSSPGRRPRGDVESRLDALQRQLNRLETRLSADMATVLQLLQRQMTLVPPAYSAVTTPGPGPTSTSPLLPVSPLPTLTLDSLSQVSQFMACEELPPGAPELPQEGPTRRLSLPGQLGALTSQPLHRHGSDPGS

| Structure (SMILES) | hERG current change (%, negative = inhibition) at 10uM [%] |
| --- | --- |
| Cc1ccc(N(CC(=O)NC(C)C)C(=O)CCC(=O)Nc2nccs2)cc1 | 16 |
| COc1ccc(-c2noc(CCCC(=O)Nc3ccc(C(N)=O)cc3)n2)cc1 | 21.8 |
| CCC(C)C(=O)Nc1c2c(nc3c1CCC3)CCCC2 (stereo not drawn) | -11.7 |
| Cc1csc(NC(=O)CSc2nnc(-c3cc(C)on3)o2)n1 | 14.6 |
| Cc1nn2c(-c3ccncc3)nnc2c2ccccc12 | -22.8 |
| CC(C)Cn1c(N)c(C(=O)CSc2ccccc2)c(=O)n(C)c1=O | 10.7 |
| CN1Cc2c(c(C#N)c(N)n(C)c2=S)CC1(C)C | -3.32 |
| CC(C)(C)NC(=O)C(c1ccccn1)N(C(=O)c1ccc2c(c1)OCCO2)C1CCCC1 (stereo not drawn) | -3.07 |
| Cc1nc2ccccc2c2oc(C(=O)Nc3ccc4c(c3)OCCO4)cc12 | 7.41 |
| Cc1cc(OCCOc2cccc3cccnc23)cc(C)c1Cl | -3.87 |
| CCOC(=O)c1ccc(NC(=O)C2(c3ccc(OC)cc3)CCOCC2)cc1 | -1.79 |
| CC(=O)c1ccc(N2CCN(CN3C(=O)CC4(CCCC4)C3=O)CC2)c(F)c1 | 6.7 |
| Cn1c(N)c(C#N)c(C#N)c1-c1ccccc1 | -3.22 |
| CCOC(=O)c1cccc(NC(=O)/C=C/c2cccc([N+](=O)[O-])c2)c1 | -15.4 |
| O=C(Nc1ccccc1)OC(CN1CCCCC1)C(F)(F)F (stereo not drawn) | 6.17 |
| COc1ccccc1N=Cc1c(C)[nH]n(-c2ccc(C)cc2C)c1=O | 6.84 |
| C/C=C(\C)C(=O)OC1C(C)=C2C(C1OC(=O)CCCCC)C(C)(OC(C)=O)CC(OC(=O)CCC)C1(O)C2OC(=O)C1(C)O (stereo not drawn) | -6.49 |
| S=c1[nH]ncn1/N=C/c1ccccn1 | 11.7 |
| Cc1ccc(-c2noc(CSc3nnc(-c4ccncc4)n3-c3ccc(F)cc3)n2)cc1 | -10.3 |

| Structure (SMILES) | hERG current change (%, negative = inhibition) at 10uM [%] |
| --- | --- |
| COc1ccc(NC(=O)c2sc(SC)nc2N)cc1 | -0.0249 |
| Cc1ccc(C(=O)C2CCN(CC(=O)NC3CCCCC3)CC2)cc1 | -15.9 |
| Fc1cccc(F)c1-c1nc(-c2ccc(Cl)cc2)no1 | 10.3 |
| O=C(c1ccc2c(c1)OCO2)N(c1ccc(Cl)cc1)C1C=CS(=O)(=O)C1 (stereo not drawn) | -16.8 |
| Br.CC(C)(C)c1ccc(OCC(=O)NN2Cc3ccccc3C2=N)cc1 | -65.5 |
| Cn1c(CO)cnc1SCc1ccccc1 | 1.99 |
| CCOC(=O)C1C(=O)NC(c2ccccc2)=NC1c1cccc(Br)c1 (stereo not drawn) | 15.9 |
| C[S+](CC[C@H](N)C(=O)O)C[C@H]1O[C@@H](n2cnc3c(N)ncnc32)[C@H](O)[C@@H]1O.[Cl-] (stereo partly drawn) | 1.39 |
| CCOC(=O)c1ccc(-c2nnc(-c3ccc(Cl)cc3Cl)o2)cc1 | -1.38 |
| Cc1ccc(S(=O)(=O)N2CCN(CCNC(=O)C(=O)NCc3ccccc3)CC2)cc1 | 5.65 |
| CC/C(O)=C1\C(=O)CCCC1=NCCc1nc2ccccc2[nH]1 | -4.16 |
| O=C(OCc1cc(=O)n2cc(Br)ccc2n1)c1ccc(Cl)c(S(=O)(=O)NCc2ccccc2)c1 | 6.43 |
| CCOC(=O)C1=C(C)NC(=O)NC1/C=C/c1ccccc1OC (stereo not drawn) | 22.6 |
| CC(=O)c1cccc(NC(=O)NC2CC(=O)N(c3ccc4c(c3)OCCO4)C2)c1 (stereo not drawn) | 0.0754 |
| CC(NC(=O)CN1c2cccc3cccc(c23)S1(=O)=O)c1ccc(S(N)(=O)=O)cc1 (stereo not drawn) | -25.1 |
| Cc1cccc(N(C)S(=O)(=O)c2c[nH]c3ccc([N+](=O)[O-])cc23)c1 | 12.5 |
| COc1ccc(OC)c(NC(=O)C2CCCNC2=O)c1 (stereo not drawn) | 4.53 |
| CC(Cc1ccccc1)NCCC(=O)NC(C)Cc1ccccc1 (stereo not drawn) | 11.5 |
| O=C(CCN1CCN(c2ccc(Cl)cc2)CC1)Nc1ccccc1F | -34 |

| Structure (SMILES) | hERG current change (%, negative = inhibition) at 10uM [%] |
| --- | --- |
| Cc1ccccc1OCCC(=O)OCC(=O)Nc1c(F)cccc1F | 7.99 |
| CC(C)(C)[C@H]1C=C(C(=O)O)O[C@@H](OCCCCO)C1 | 6.41 |
| O=c1ccc(Br)c[nH]1 | 10.3 |
| COc1ccc(Cl)cc1N=Cc1c(O)c2ccccc2oc1=O | 26.2 |
| COc1c2c(cc3oc(=O)ccc13)OC(C)(C)C=C2 | -3.85 |
| COc1cc(/C=N/NC(=O)c2csc3c2CCCC3)ccc1OCCN1CCOCC1 | -31.9 |
| COc1ccccc1N(CCC#N)C(=O)CSc1nnc2ccccn12 | -7.23 |
| N#Cc1c(/N=C/c2ccc(-c3ccccc3C(=O)O)o2)sc2c1CCCC2 | 20.1 |
| Cc1cccc(C2c3[nH]c4ccccc4c3CCN2C(=O)c2noc3c2CCCC3)n1 (stereo not drawn) | 1.18 |
| CC(=O)c1ccc(NC(=O)CCNC(=O)c2ccccc2Cl)cc1 | -46 |
| O=C(N/N=C/C(Cl)=C\c1ccccc1)c1cccs1 | 13.3 |
| COc1ccccc1N1CCN(C(=O)c2sc3nc(-c4ccccc4)cn3c2C)CC1 | -35 |
| Cc1nn(CCCC(=O)NCc2ccccc2)c(C)c1[N+](=O)[O-] | -3.55 |
| CCCC(=O)N1CCN(c2nc(CC(C)C)c3c(c2C#N)CCC3)CC1 | -53 |
| CCN(Cc1nc(-c2ccc(OC)c(OC)c2)no1)C(=O)c1ccoc1C | 12.7 |
| O=C(O)c1cccc(Nc2ccc([N+](=O)[O-])cn2)c1 | 21.3 |
| NC(=O)c1c(N)sc(=S)n1CC1CCCO1 (stereo not drawn) | 0.716 |
| O=C(CSc1nc(Nc2ccccc2)nc(N2CCOCC2)n1)Nc1cc(Cl)ccc1O | -26.8 |
| COc1ccccc1C(=O)Nc1ccc(Oc2nnc(-c3ccc(C)cc3)c3ccccc23)cc1 | 11.8 |
